Data taken from a collection of fitness landscapes (doi:10.1016/j.celrep.2020.107928).
Whole data set: some 81,000 sequences, median “one-hybrid fitness for binding parS DNA” near -0.17, cut for the highest 2% near 0.51. This is one part of the list.

B1: Caulobacter ParB omega fusion; a variant is named by its letters at X, in order, B8GW30 (parent)
chain: MESVVVGEPGMSEGRRGLGRGLSALLGEVDAAPAQAPGEQLGGSREAPIEILQRNPDQPRRTFREEDLEDLSNSIREKGVLQPILVRPSPDTAGEYQIVAGERAWRAAQRAGLKTVPIMVRELDDLAVLEIGIIENVQRADLNVLEEALSYKVLMEKFERTQENIAQTIGKSXSHVANXMRLLXLPDEVQSYLVSGELTAXHARAIAAAADPVALAKQIIEGGLSVRETEALARKAPNLSAGKSKGGRPPRVKDTDTQALESDLSSVLGLDVSIDHRGSTGTLTITYATLEQLDDLCNRLTRGI

Variants of: B1
Test: one-hybrid fitness for binding parS DNA (scaled: cognate 1, non-cognate 0); higher = stronger binding
Conditions: with parS DNA site
Outline: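 Bacterial one-hybrid selection in E. coli USO rpoZ- hisB- pyrF- with a HIS3 reporter carrying the site 19 bp from the promoter, screening Caulobacter ParB libraries with four specificity codons randomised (NNS). Cells grew 48 hours at 37°C on M9-minus-histidine plus 0.1 mM IPTG and 5 mM 3-AT. Plasmids before and after selection were Illumina-sequenced, three replicate libraries pooled, and variants under 10 reads dropped. Fitness is the log change in variant-to-wild-type read ratio, rescaled to cognate 1, non-cognate 0.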

Variant	one-hybrid fitness for binding parS DNA
QKPN	≤ 0.2
HRKC	0.365
MADP	≤ 0.2
NIWV	≤ 0.2
ILLC	≤ 0.2
SFCD	≤ 0.2
CHEL	≤ 0.2
KQVR	≤ 0.2
RIPQ	≤ 0.2
DKVG	≤ 0.2
YVPC	≤ 0.2
VKAG	≤ 0.2
RWQY	≤ 0.2
QKTR	≤ 0.2
RCQC	0.994
GLRC	≤ 0.2
HHEI	≤ 0.2
NNQR	≤ 0.2
WRQS	≤ 0.2
THAE	≤ 0.2
RVAM	0.329
QIEK	≤ 0.2
VLNC	≤ 0.2
YAYG	≤ 0.2
HFCT	≤ 0.2
QWWC	≤ 0.2

Variant	one-hybrid fitness for binding parS DNA
VPYC	≤ 0.2
RCDE	≤ 0.2
TQNA	≤ 0.2
ESGF	0.259
RYKR	≤ 0.2
PFNN	≤ 0.2
RQHG	1.01
LRFM	≤ 0.2
NHTF	≤ 0.2
LPSP	≤ 0.2
QHPW	≤ 0.2
VGFC	≤ 0.2
RMCT	0.888
DDGC	≤ 0.2
RYMG	0.971
CWLS	≤ 0.2
ADVL	≤ 0.2
DAVG	≤ 0.2
NSHV	≤ 0.2
NFLD	≤ 0.2
HISI	≤ 0.2
DMAL	≤ 0.2
TLVV	≤ 0.2
MLDR	≤ 0.2
DSWT	≤ 0.2
WATV	≤ 0.2

Variant	one-hybrid fitness for binding parS DNA
ALAF	≤ 0.2
HHHV	≤ 0.2
VVPS	≤ 0.2
RQYP	≤ 0.2
SRKS	≤ 0.2
QKWD	≤ 0.2
VIRY	≤ 0.2
VMPA	≤ 0.2
PAPV	≤ 0.2
SYLS	≤ 0.2
MYPF	≤ 0.2
IVIG	≤ 0.2
QQHY	≤ 0.2
DDGP	≤ 0.2
KCLS	≤ 0.2
CKAK	≤ 0.2
QGTQ	≤ 0.2
DRML	≤ 0.2
APLF	≤ 0.2
WWKR	≤ 0.2
RVKR	≤ 0.2
QATT	≤ 0.2
KLHI	≤ 0.2
LLLK	≤ 0.2
PPCD	≤ 0.2
CAMT	≤ 0.2

Variant	one-hybrid fitness for binding parS DNA
TNCY	≤ 0.2
RCRP	≤ 0.2
FARC	≤ 0.2
PIMQ	≤ 0.2
DPPT	≤ 0.2
YSYA	≤ 0.2
SLLK	≤ 0.2
YSNW	≤ 0.2
ANTN	≤ 0.2
KEAG	≤ 0.2
MKLR	≤ 0.2
NRNP	≤ 0.2
IPSN	≤ 0.2
RARE	≤ 0.2
GKNY	≤ 0.2
QMTS	≤ 0.2
PATT	≤ 0.2
CNSA	≤ 0.2
HPRG	≤ 0.2
PHPW	≤ 0.2
TTNS	≤ 0.2
SMHR	≤ 0.2
APCM	≤ 0.2
MVGC	≤ 0.2
ISVR	≤ 0.2
RTAQ	≤ 0.2

Variant	one-hybrid fitness for binding parS DNA
FDGS	≤ 0.2
CMQR	≤ 0.2
TKAV	≤ 0.2
PQKC	≤ 0.2
LLHF	≤ 0.2
QTYW	≤ 0.2
NKKT	≤ 0.2
QHWV	≤ 0.2
IIAR	≤ 0.2
ISTF	≤ 0.2
VNDW	≤ 0.2
AHSR	≤ 0.2
DKGR	≤ 0.2
SPQT	≤ 0.2
EQPS	≤ 0.2
WKCS	≤ 0.2
QGER	≤ 0.2
MIWR	≤ 0.2
NSIS	≤ 0.2
QAWQ	≤ 0.2
RVFA	0.611
QGIT	≤ 0.2
RCCV	≤ 0.2
RWHC	0.733
MSPL	≤ 0.2
WDDS	≤ 0.2

Variant	one-hybrid fitness for binding parS DNA
WLSL	≤ 0.2
SVNY	≤ 0.2
RGTQ	≤ 0.2
CLEA	≤ 0.2
FRFS	≤ 0.2
KAMT	≤ 0.2
RLYK	≤ 0.2
STAS	≤ 0.2
SDLM	≤ 0.2
RVWR	≤ 0.2
TPVI	≤ 0.2
VGMS	≤ 0.2
ECSD	≤ 0.2
DADT	≤ 0.2
GWDP	≤ 0.2
AYVG	≤ 0.2
RGKI	≤ 0.2
RNGC	0.769
CHNC	≤ 0.2
HTFC	≤ 0.2
TIHR	≤ 0.2
ILCQ	≤ 0.2
QMIC	≤ 0.2
